The text below walks through data of US20090023667A1 (priority 2005, published 2009).

Read-outs that look alike come from different tables or passages of the source.

Series [1] relates to small brown planthopper. Briefly: Test Example 12: insecticidal test on small brown planthopper, spraying test. The format is in vivo, Laodelphax striatellus. Particulars: small brown planthopper larvae, after 6 days. The method, then: A compound solution which was prepared by diluting to the prescribed concentration was sprayed on rice seedlings (cultivar: Koshihikari) and air-dried. […] The results are shown in Table 16 (Tables 16-1 to 16-5).

In series [2] the test system is small brown planthopper. Particulars: in vivo.
Series [3] relates to rice stem borer. Particulars: in vivo.
Series [4] concerns rice stem borer. Particulars: in vivo. The source holds these as a separate data set.
Series [5] deals with rice stem borer. Particulars: in vivo. The source holds these as a separate data set.
The mark [6] stands for this setting: Laodelphax striatellus, 144 h, 60 ppm, read-out: Mortality rate.
[7] abbreviates: Laodelphax striatellus, 144 h, read-out: Mortality rate.

On to `CCC(C)c1ccccc1OC(=O)NC` (stereo not shown) [BPMC, reference compound], for which the Mortality rate in the series with small brown planthopper [1] (500 ppm) is 95%.
`CCOC(=O)CCN(SN(C)C(=O)Oc1cccc2c1OC(C)(C)C2)C(C)C` [Benfuracarb] showed a Mortality rate with small brown planthopper [2] of 95%.
Regarding `CC(C)N1C(=O)N(c2ccccc2)CS/C1=N\C(C)(C)C` [Buprofezin, reference compound], the mortality at 200 ppm in the series on small brown planthopper [1] (Laodelphax striatellus, 144 h, 200 ppm, read-out: Mortality rate) stood at 90%.
Consider `CN(C)C(CSC(N)=O)CSC(N)=O` [Cartap], for which the Mortality rate with rice stem borer [3], in the series with rice stem borer [4] and in the series on rice stem borer [5] was 95% each time.
Take `CN/C(=N\[N+](=O)[O-])NCc1cnc(Cl)s1` [Clothianidin, reference compound]: in the series with small brown planthopper [1] (Laodelphax striatellus, 144 h, 40 ppm, read-out: Mortality rate), the mortality at 40 ppm came to 95%.
As to `Cc1ccc(C(=O)NC(CNC(=O)OCC(F)(F)F)C(C)C)cc1` (stereo not shown) [Compound 6, N-(2,2,2-trifluoroethyloxycarbonyl)-N′-(4-methylbenzoyl)-3-methyl-1,2-butanediamine], the Mortality rate with rice stem borer [3], with rice stem borer [4] and in the series with rice stem borer [5] was 0% throughout. In the series on small brown planthopper [1] (setting [6]), the mortality at 60 ppm is 0%.
`C=C(Cl)COC(=O)NC(CNC(=O)c1ccc(C)cc1)C(C)C` (stereo not shown) [Compound 15] had a Mortality rate with small brown planthopper [1] (60 ppm) of 0%.
In the series with rice stem borer [3], `Cc1ccc(C(=O)NC(CNC(=O)OC2CCCCC2Cl)C(C)C)cc1` (stereo not shown) [Compound 17, N-(2-chlorocyclohexyloxycarbonyl)-N′-(4-methylbenzoyl)-3-methyl-1,2-butanediamine] had a Mortality rate of 0%. The mortality at 60 ppm in the series on small brown planthopper [1] (setting [6]) came to 0%.
For the compound `Cc1ccc(C(=O)NCC(NC(=O)OCC(F)(F)F)C(C)(C)C)cc1` (stereo not shown) [Compound 24], in the series on small brown planthopper [1] (60 ppm), the Mortality rate is reported as 0%.
Same read-out and setting: as for `CC(C)C(CNC(=O)c1cc2ccccc2o1)NC(=O)OCC(F)(F)F` (stereo not shown) [Compound 28], the figure is 0%.
Still for that read-out and setting: with `CC(C)(C)C(CNC(=O)c1cc2ccccc2o1)NC(=O)OCC(F)(F)F` (stereo not shown) [Compound 31] the figure was 0%; with `CCC(C)C(CNC(=O)c1cc2ccccc2o1)NC(=O)OCC(F)(F)F` (stereo not shown) [Compound 32], 5%; with `CCC(C)C(CNC(=O)c1nc2ccccc2s1)NC(=O)OCC(F)(F)F` (stereo not shown) [Compound 33], 0%.
`CC(C)C(CNC(=O)c1cc2ccccc2s1)NC(=O)OCC(F)(F)F` (stereo not shown) [Compound 34] had a Mortality rate in the series on small brown planthopper [1] (60 ppm) of 0%.
Regarding `CC(C)C(CNC(=O)c1nc2ccc(F)cc2s1)NC(=O)OCC(F)(F)F` (stereo not shown) [Compound 37], in the series with small brown planthopper [1] (60 ppm), the Mortality rate is recorded as 0%.
In the case of `CC(C)C(CNC(=O)c1nc2ccccc2s1)NC(=O)OCC(F)(F)F` (stereo not shown) [Compound 38], the Mortality rate in the series with small brown planthopper [1] (60 ppm) was determined as 0%.
Consider `CC(CNC(=O)c1cc2ccccc2o1)NC(=O)OCC(F)(F)F` (stereo not shown) [Compound 40], for which the Mortality rate in the series on small brown planthopper [1] (60 ppm) was determined as 0%.
In the series on rice stem borer [3], `Cc1cc(C(F)(C(F)(F)F)C(F)(F)F)ccc1NC(=O)c1cccc(I)c1C(=O)NC(C)(C)CS(C)(=O)=O` [Compound 101, reference compound] yielded a Mortality rate of 95%.
On the same count and under the same terms, with `CNC(=O)c1cc(Cl)cc(C)c1NC(=O)c1cc(Br)nn1-c1ncccc1Cl` [Compound 102, reference compound] the figure was 95%; with `N#Cc1ccc(CC(=NNC(=O)Nc2ccc(OC(F)(F)F)cc2)c2ccc(C(F)(F)F)cc2)cc1` [Compound 103, reference compound], 90%.
Consider `CN/C(=N/CC1CCOC1)N[N+](=O)[O-]` (stereo not shown) [Dinotefuran, reference compound], for which, in the series with small brown planthopper [1] (Laodelphax striatellus, 144 h, 67 ppm, read-out: Mortality rate), the mortality at 67 ppm was 95%.
`CC[S+]([O-])c1c(C#N)nn(-c2c(Cl)cc(C(F)(F)F)cc2Cl)c1N` (stereo not shown) [Ethiprole, reference compound]: in the series on small brown planthopper [1] (setting [7]), the mortality at 100 ppm came out at 95%.
With `CCOc1ccc(C(C)(C)COCc2cccc(Oc3ccccc3)c2)cc1` [Etofenprox, reference compound], in the series with small brown planthopper [1] (setting [7]), the mortality at 100 ppm was 95%.
In the series on small brown planthopper [2], `N#Cc1nn(-c2c(Cl)cc(C(F)(F)F)cc2Cl)c(N)c1[S+]([O-])C(F)(F)F` (stereo not shown) [Fipronil] registered a Mortality rate of 95%.
Regarding `O=[N+]([O-])NC1=NCCN1Cc1ccc(Cl)nc1` [Imidacloprid], in the series with small brown planthopper [2], the Mortality rate amounted to 95%.
`COP(=S)(OC)Oc1ccc([N+](=O)[O-])c(C)c1` [MEP, reference compound] had a Mortality rate with small brown planthopper [1] (500 ppm) of 95%.
In the series on small brown planthopper [1] (500 ppm), `COP(=S)(OC)Oc1ccc(SC)c(C)c1` [MPP, reference compound] had a Mortality rate of 90%.
On to `CC1=NNC(=O)N(/N=C/c2cccnc2)C1` [Pymetrozine], for which the Mortality rate in the series with small brown planthopper [2] is 95%.
For `CCOc1ccc([Si](C)(C)CCCc2ccc(F)c(Oc3ccccc3)c2)cc1` [Silafluofen, reference compound], the mortality at 95 ppm in the series on small brown planthopper [1] (Laodelphax striatellus, 144 h, 95 ppm, read-out: Mortality rate) was determined as 95%.
`CCc1ccc(C(=O)NN(C(=O)c2cc(C)cc(C)c2)C(C)(C)C)cc1` [Tebufenozide] yielded a Mortality rate in the series with rice stem borer [3] of 95%.
With `CN1COCN(Cc2cnc(Cl)s2)/C1=N\[N+](=O)[O-]` [Thiamethoxam], in the series on small brown planthopper [2], the Mortality rate was 95%.

Usually mortality stands for the percentage killed.
